PubChem BioAssay (NCATS)
The inconclusive results got no clear call from the source; some entries with a clear call stand among them for comparison. Potencies of inconclusive entries are left out as doubtful fits. The source made the active and inactive calls. Calls come from the whole dose curve; as a rule, active = well fitted cell-killing curve with a large enough effect; inconclusive = small, poorly fitted or top-dose-only effect; inactive = no such curve, though single readings can be large or run the other way. Where a SMILES comes first, the peptide text is derived from it. The star is where a group is joined. Cbz = O=C(OCc1ccccc1)*

experiment: qHTS of pediatric cancer cell lines to identify multiple opportunities for drug repurposing: Primary screen for Rh30 cells (AID 1347107); details: Rh30 rhabdomyosarcoma viability, CellTiter-Glo luminescence, 48 h; series mostly up to 46 µM; activity change, negative = cytotoxic: at the top concentration; note: nearly all actives have a fitted effect of over 75% in size
Excerpt: Drug repurposing or repositioning has been offered as a strategy for drug development in oncology programs. This approach has special potential for childhood cancers and other rare or orphan diseases, where the expected return on new drug development has been a disincentive to pharmaceuticals.
In this project we exploit the poly-pharmacology of drugs to discover new indications via phenotypic screening of a panel of 19 well-characterized cell lines derived from solid tumors seen in children and adolescents. The goal is to identify approved drugs with previously unrecognized anticancer properties that has the potential to reveal new mechanisms and biological processes involved in carcinogenesis or drug resistance. We employed a titration-based paradigm (quantitative high-throughput screening or qHTS), where all compounds were tested at multiple concentrations for their effect on cell viability. Concentration-response curves (CRCs) were derived directly from the primary screen, and both potency and efficacy values were used to identify compounds with robust bioactivity profiles. We screened the NIH Chemical Genomics Center (NCGC) Pharmaceutical Collection (NPC) and Mechanism Interrogation Plate (MIPE) small molecule collections of approved and investigational compounds against these cell lines; and measured metabolically active cells after 48 hours of compound treatment as a proxy for cell viability.
Assay Submitter: Nathalia J. Martinez, National Center for Advancing Translational Sciences, National Institutes of Health, Rockville, MD, USA; email: natalia.martinez@nih.gov
[1] Shen, M et al. Quantitative high-throughput phenotypic screening of pediatric cancer cell lines identifies multiple opportunities for drug repurposing. Oncotarget 2017 Dec 19;9(4):4758-4772. PMID 29435139.
The cells were obtained from University of North Carolina (UNC), Pediatric Preclinical Testing Program (PPT), and Coriell Institute (CI).
qHTS cell viability assay:
Cells were assayed in growth media at a density of 500-1,000 cells/well. Five microliters of cells were dispensed into 1,536-well, white, solid-bottom, TC-treated plates (Greiner Bio One) using a multidrop dispenser and incubated at 37 degrees C, 5% CO2, under a humidified atmosphere for 5 hours. Twenty-three nanoliters of compounds and controls (neutral control DMSO or positive control bortezomib at final concentration of 2.3 µM) were subsequently transferred by Kalypsys pintool. For primary screens, the MIPE collection was tested at 11-point dilutions (final concentrations range from 0.78 nM to 46 µM) and the NPC collection at 8-point dilutions (final concentrations range from 0.59 nM to 46 µM). Compounds tested in follow-up screens were assayed at 11-point dilutions. Cells were incubated for 48 hours, followed by addition of 3 µL of CellTiter-Glo (Promega). After a 15 min incubation at room temperature, samples were analyzed for luminescence intensity using a ViewLux High-throughput CCD imager equipped with clear filters.
% is set by controls: 0 for no effect and ±100 for the full control effect; potency is the fitted concentration of half-maximal effect; tags give direction and shape of the fitted curve.

| SMILES | activity change, negative = cytotoxic | Potency |
| --- | --- | --- |
| CC(C)(O)CC[C@@H](O)[C@](C)(O)[C@H]1CC[C@@]2(O)C3=CC(=O)[C@@H]4C[C@@H](O)[C@@H](O)C[C@]4(C)[C@@H]3CC[C@]12C | inactive: 10.1% | – |
| CNC(=O)c1ccccc1Sc1ccc2c(C=Cc3ccccn3)n[nH]c2c1 | – | inconclusive [cytotoxic, partial curve] |
| Cn1cc(CNCC2CCN(c3ncc(C(=O)NO)cn3)CC2)c2ccccc21 | – | active: 1.18 µM |
| CNC(=O)c1ccc(Nc2cc(Nc3ccccc3S(=O)(=O)C(C)C)c3cc[nH]c3n2)nc1 | – | inconclusive [cytotoxic, full curve] |
| OC1(c2ccc(Cl)c(C(F)(F)F)c2)CCN(CCCC(c2ccc(F)cc2)c2ccc(F)cc2)CC1 | – | inconclusive [cytotoxic, single point] |
| O=C(Oc1cccc2cccnc12)c1ccccc1 | – | inconclusive [cytotoxic, partial curve, poor fit] |
| OCCNC1CCCc2c1[nH]c1ccc(-c3ccccc3)cc21 (stereo not given) | – | inconclusive [cytotoxic, partial curve, poor fit] |
| O=C(O)C1(Cc2cccc(Nc3nccs3)n2)CCC(Oc2cccc(Cl)c2F)CC1 (stereo not given) | – | inconclusive [cytotoxic, partial curve, poor fit] |
| COP(=O)(OC)OC(c1ccc(Cl)cc1)P(=O)(OC)OC (stereo not given) | inactive: 6.93% | – |
| CC(C)N1[N]C(=C2C=c3cc(O)ccc3=N2)c2c(N)ncnc21 | – | active: 5.9 µM |
| O=C(O)COCCN1CCN(C(c2ccccc2)c2ccc(Cl)cc2)CC1 (stereo not given) | – | inactive |
| CCn1cc(-c2ccnc3[nH]c(-c4cccc(CN(C)C)c4)cc23)c(-c2ccc(NC(=O)N(C)C)cc2)n1 | – | active: 14.8 µM |
| CC(C(=O)O)c1ccc2c(c1)Cc1cccnc1O2 (stereo not given) | inactive: 22.7% | – |
| CN[C@H]1[C@@H](O)[C@@H]2O[C@@H]3O[C@H](C)CC(=O)[C@]3(O)O[C@@H]2[C@@H](NC)[C@H]1O | – | active: 0.296 µM |
| CN(C/C=C/C#CC(C)(C)C)Cc1cccc2ccccc12 | inactive: 7.37% | – |
| C[C@H](NCc1ccc(OCc2cccc(F)c2)cc1)C(N)=O | – | inconclusive [cytotoxic, partial curve] |
| COc1cc(C(=O)N2CCC(N3CCN(C)CC3)CC2)ccc1Nc1ncc2c(n1)N(C)c1ccccc1C(=O)N2C | – | inconclusive [cytotoxic, partial curve] |
| CC(C)(C)C1CCC(CC2=C(O)c3ccccc3C(=O)C2=O)CC1 (stereo not given) | – | inconclusive [cytotoxic, partial curve, poor fit] |
| NC1(Cc2ccc(Cl)cc2)CCN(c2ncnc3[nH]ccc23)CC1 | – | inconclusive [cytotoxic, partial curve] |
| COc1cc2c(NC3CCN(C(C)C)CC3)nc(C3CCCCC3)nc2cc1OCCCN1CCCC1 | – | active: 18.7 µM |

| SMILES | activity change, negative = cytotoxic | Potency |
| --- | --- | --- |
| CC(=O)N[C@@H](CS)C(=O)O | inactive: 28.8% | – |
| C[C@]12CC[C@@H]3c4ccc(O)cc4CC[C@H]3[C@H]1CC[C@H]2O | – | inconclusive [cytotoxic, single point] |
| O=C(Nc1cccc(Nc2ncc(Br)c(NCCc3cnc[nH]3)n2)c1)N1CCCC1 | – | inconclusive [cytotoxic, partial curve] |
| COc1ccc(CCN(C)CCCC(C#N)(c2cc(OC)c(OC)c(OC)c2)C(C)C)cc1OC (stereo not given) | inactive: -16% | – |
| NC(=O)C1(N2CCCCC2)CCN(CCCN2c3ccccc3CCc3ccc(Cl)cc32)CC1 | – | inconclusive [cytotoxic, single point] |
| CN(C)c1ccc(C(=O)NCCCCCCC(=O)NO)cc1 | – | active: 2.35 µM |
| CC(C)C[C@@H](C=O)NC(=O)[C@H](CC(C)C)NC(=O)[C@H](CC(C)C)NC(=O)OCc1ccccc1 (Cbz-Leu-Leu-Leu-aldehyde) | – | active: 3.72 µM |
| c1ccc(-c2nc[nH]c2-c2ccccc2)cc1 | inactive: 3.31% | – |
| CN(C)Cc1c(C(=O)NCCOc2ccc(C(=O)NO)cc2)oc2ccccc12 | – | active: 4.69 µM |
| Cc1c(Cn2c(C)nc3c(C(=O)O)cc(N4CCOCC4)cc32)cccc1C(F)(F)F | – | inconclusive [cytotoxic, partial curve] |
| C[C@@H](Oc1ccc2[nH]nc(C=Cc3cnn(CCO)c3)c2c1)c1c(Cl)cncc1Cl | – | inconclusive [cytotoxic, partial curve] |
| Cc1cc(Nc2cc(CN3CCOCC3)c3nc(C)c(Cc4ccc(Cl)cc4F)n3n2)n[nH]1 | – | active: 14.8 µM |
| CCc1c2c(nc3ccc(O)cc13)-c1cc3c(c(=O)n1C2)COC(=O)[C@]3(O)CC | – | active: 0.132 µM |
| Cc1ccc(CN2CCNCC2)cc1NC(=O)CNc1ccc(F)c(F)c1 | – | inconclusive [cytotoxic, partial curve, poor fit] |
| O=C(C=CC#Cc1cccc(NS(=O)(=O)c2ccccc2)c1)NO | – | active: 11.8 µM |
| CCOc1cc2c(c(F)c1OCC)C(=N)N(CC(=O)c1cc(N3CCOCC3)c(OC)c(C(C)(C)C)c1)C2 | – | inconclusive [cytotoxic, full curve] |
| NC(=O)N[C@@H](CCC(=O)O)C(=O)O | inactive: 22.7% | – |
| O=C(Nc1nc2cccc(-c3ccc(CN4CCS(=O)(=O)CC4)cc3)n2n1)C1CC1 | – | inconclusive [cytotoxic, partial curve] |
| O=C(O)C[C@H](O)C[C@H](O)C=Cc1c(C2CC2)nc2ccccc2c1-c1ccc(F)cc1 | – | inconclusive [cytotoxic, full curve] |
| CS(=O)(=O)N1CCc2c(-c3cnc(N)nc3)nc(N3CCOCC3)nc21 | – | inconclusive [cytotoxic, full curve] |
